Experimental data: the antibiotic and cytotoxicity screens of Wong et al. (2023)
The list shows a part of the results.

Each compound was assayed on HepG2 (assay: cytotoxicity call (relative viability < 0.9)). Details: 10 µM.

Compound	cytotoxicity call
C[C@H](CO)N1C[C@H](C)[C@@H](CN(C)S(=O)(=O)c2ccc(F)cc2)Oc2ccc(NC(=O)CCN3CCOCC3)cc2CC1=O	inactive
Cc1ccc(S(=O)(=O)N2C[C@@H](O)COC[C@H]3O[C@H](CC(=O)N[C@H]4CCN(Cc5ccccc5)C4)CC[C@@H]32)cc1	inactive
CS(=O)(=O)OCCCCOS(C)(=O)=O	inactive
CC(C)N1C[C@H](CN(C)Cc2ccc(Oc3ccccc3)cc2)Oc2c(NC(=O)c3ccncc3)cccc2C1=O	inactive
CO[C@@H]1CN(C)C(=O)c2ccc(NC(=O)C3CC3)cc2OC[C@H](C)N(C(=O)CN2CCOCC2)C[C@H]1C	inactive
C[C@H]1CN([C@@H](C)CO)C(=O)c2cc(NC(=O)Nc3ccc4c(c3)OCO4)ccc2O[C@H]1CN(C)Cc1ccc(C(=O)Nc2ccccc2N)cc1	inactive
C[C@@H]1CN([C@H](C)CO)C(=O)c2cc(NS(=O)(=O)c3cn(C)cn3)ccc2O[C@@H]1CN(C)Cc1ccc(C(=O)O)cc1	inactive
CCc1nc(N)nc(N)c1-c1ccc(Cl)cc1	active
COc1ccc(CN(C)C[C@H]2OCCCC[C@@H](C)Oc3ccc(NS(=O)(=O)c4ccc(C)cc4)cc3C(=O)N([C@@H](C)CO)C[C@H]2C)cc1	inactive
COc1ccc(C#Cc2cnc3c(c2)C(=O)N([C@@H](C)CO)C[C@@H](C)[C@H](CN(C)C(=O)CC2CC2)O3)cc1	inactive
CC(C)OC(=O)c1cn(Cc2c(F)cccc2F)c2sc(-c3ccc(NC(=O)C(C)C)cc3)c(CN(C)Cc3ccccc3)c2c1=O	active
Cc1noc(C)c1S(=O)(=O)Nc1ccc2c(c1)C(=O)N([C@H](C)CO)C[C@H](C)[C@@H](CN(C)S(=O)(=O)c1ccc(Cl)cc1)O2	inactive
C[C@H](CO)N1C[C@H](C)[C@H](CN(C)C(=O)c2cc(Cl)cc(Cl)c2)OCc2ccccc2-c2ccccc2C1=O	inactive
COc1ccc(S(=O)(=O)N(C)C[C@@H]2OCCCC[C@@H](C)Oc3ccc(NC(=O)C4CCCCC4)cc3C(=O)N([C@H](C)CO)C[C@@H]2C)cc1	inactive
C[C@@H]1CN([C@@H](C)CO)C(=O)Cc2cc(NS(=O)(=O)c3cn(C)cn3)ccc2O[C@H]1CN(C)S(C)(=O)=O	inactive
C[C@H]1CN([C@@H](C)CO)C(=O)c2cc(NS(=O)(=O)c3cn(C)cn3)ccc2O[C@H]1CN(C)C(=O)Nc1ccc(F)cc1	inactive
Cc1noc(C)c1NC(=O)N(C)C[C@@H]1Oc2ncc(C#CCN(C)C)cc2C(=O)N([C@@H](C)CO)C[C@H]1C	inactive
C[C@@H]1CCCCO[C@H](CN(C)C(=O)CCC(F)(F)F)[C@@H](C)CN([C@H](C)CO)C(=O)c2cc(NC(=O)NC3CCCCC3)ccc2O1	inactive
CN(C)CCCCCCNC(=O)[C@H]1C[C@H]2C(=O)N[C@@H](CCCC[N+](C)(C)C)C(=O)N2[C@H]1c1cccc(OCCO)c1	inactive
C[C@@H]1CN([C@H](C)CO)C(=O)c2cc(C#Cc3ccccc3F)cnc2O[C@H]1CN(C)C(=O)c1ccc2c(c1)OCO2	inactive
C[C@@H]1CCCCO[C@H](CN(C)S(C)(=O)=O)[C@@H](C)CN([C@@H](C)CO)C(=O)c2cc(NC(=O)c3ccncc3)ccc2O1	inactive
CC(=O)NCC(=O)N1CCC2(CC1)C(=O)N(CC1CC1)CCN2C	inactive
C[C@H](CO)N1C[C@H](C)[C@H](CN(C)Cc2ccc(C(F)(F)F)cc2)Oc2ccc(NC(=O)Cn3cnnn3)cc2C1=O	inactive
C[C@@H]1CN([C@@H](C)CO)S(=O)(=O)c2ccc(C#CC(C)(C)O)cc2O[C@H]1CN(C)C(=O)CN(C)C	inactive
C[C@@H]1CN([C@@H](C)CO)C(=O)Cc2cc(NS(=O)(=O)c3cn(C)cn3)ccc2O[C@@H]1CN(C)CC1CC1	inactive
O=C(C[C@@H]1CC[C@@H](NS(=O)(=O)c2ccccc2)[C@@H](CO)O1)NCc1ccncn1	inactive
Cc1ccc(-c2ccc3c(c2)O[C@@H](CN(C)C(=O)CN(C)C)[C@@H](C)CN([C@@H](C)CO)S3(=O)=O)cc1	inactive
C[C@H]1CN([C@@H](C)CO)C(=O)c2cc(NC(=O)NC3CCCCC3)ccc2O[C@H]1CN(C)S(=O)(=O)c1cn(C)cn1	inactive
C[C@@H]1CCCCO[C@@H](CN(C)C(=O)NC2CCCCC2)[C@@H](C)CN([C@@H](C)CO)C(=O)c2cc(NC(=O)c3ccccc3)ccc2O1	inactive
COc1ccc(S(=O)(=O)Nc2ccccc2CN(C)C/C=C/c2ccc(Cl)cc2)cc1.O=P(=O)OO	inactive
